± gives the uncertainty stated by the source. Shown are siRNA guide strands that differ only in the seed, positions 2 to 7.
Legend:
[1] = system: 3LL; assay: cell viability relative to siNT1 control; higher = less toxic; details: concentration: 10 nM; 96 h; Mus musculus;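 also: Luminescence-based viability of cells reverse transfected in 384-well plates with lipid-complexed siRNAs built on a non-toxic 19mer backbone whose passenger strand carries 2′-O-methyl groups at positions 1 and 2, triplicates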
[2] = system: H460; assay: cell viability relative to lipid-only control; HeyA8 human ovarian and H460 human lung cancer; M565 mouse liver and 3LL mouse lung cancer; siNT1 is a non-toxic control siRNA; higher = less toxic; details: concentration: 10 nM; 96 h; Homo sapiens
Method: (§1)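 Arrayed screen of 4096 siRNA duplexes, each carrying one of all possible 6mer seeds at guide-strand positions 2-7 in a fixed neutral 19mer scaffold (constant flanks: U at position 1, then ACAUGUAAACCA, plus a 3' AA overhang). The passenger strand is 2'-O-methylated at positions 1-2 so only the guide strand loads into RISC. Duplexes were reverse-transfected at 10 nM with RNAiMAX in triplicate in 384-well plates; viability was read by CellTiter-Glo ATP content 96 h after transfection. Values are % viability normalised to lipid-only wells (HeyA8, H460, M565) or to siNT1 (3LL).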

[3] = system: HeyA8; assay: as above; details: concentration: 10 nM; 96 h; Homo sapiens
Method: as §1

[4] = system: M565; assay: as above; details: concentration: 10 nM; 96 h; Mus musculus
Method: as §1
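For cell viability relative to lipid-only control in this document: reverse lipid transfection in 384-well plates, in triplicate, of duplexes on a non-toxic 19mer backbone with passenger strand 2′-O-methylated at positions 1 and 2, luminescence viability read-out.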

| Sequence | cell viability [1] | cell viability [2] | cell viability [3] | cell viability [4] |
| --- | --- | --- | --- | --- |
| UCGUAUGACAUGUAAACCAAA | 90.6 ± 12% | 76.5 ± 7.7% | 87.8 ± 5.8% | 63.1 ± 7.7% |
| UCGUAUUACAUGUAAACCAAA | 86.4 ± 9.5% | 78.5 ± 18% | 88.4 ± 3.3% | 72.3 ± 6.7% |
| UCGUCAAACAUGUAAACCAAA | 93.5 ± 17% | 73.2 ± 21% | 74.5 ± 7.7% | 52.4 ± 7% |
| UCGUCACACAUGUAAACCAAA | 70 ± 10% | 65.9 ± 7.3% | 57.1 ± 5.7% | 39.7 ± 9.8% |
| UCGUCAGACAUGUAAACCAAA | 77.8 ± 15% | 63.6 ± 9.6% | 75.7 ± 8.3% | 66.7 ± 6.2% |
| UCGUCAUACAUGUAAACCAAA | 92.3 ± 7.1% | 72.6 ± 23% | 66.3 ± 7.3% | 44.8 ± 9.2% |
| UCGUCCAACAUGUAAACCAAA | 59.1 ± 11% | 65 ± 4.1% | 33.5 ± 3.2% | 48.1 ± 12% |
| UCGUCCCACAUGUAAACCAAA | 23.4 ± 7% | 39 ± 0.85% | 28 ± 2.5% | 4.29 ± 0.29% |
| UCGUCCGACAUGUAAACCAAA | 60.4 ± 6.4% | 69.2 ± 13% | 53.3 ± 7.2% | 56.5 ± 8.8% |
| UCGUCCUACAUGUAAACCAAA | 30.5 ± 12% | 50.2 ± 0.58% | 30.3 ± 1.8% | 31 ± 4.5% |
| UCGUCGAACAUGUAAACCAAA | 88.8 ± 11% | 83.8 ± 22% | 78.9 ± 9.9% | 56.4 ± 7.2% |
| UCGUCGCACAUGUAAACCAAA | 50.8 ± 12% | 43 ± 3.5% | 18.9 ± 1.3% | 46.1 ± 2.2% |
| UCGUCGGACAUGUAAACCAAA | 59.1 ± 17% | 56.9 ± 8.8% | 51 ± 2.4% | 60.5 ± 6.8% |
| UCGUCGUACAUGUAAACCAAA | 67.4 ± 19% | 59.7 ± 4.3% | 45.5 ± 6.3% | 50.8 ± 4.3% |
| UCGUCUAACAUGUAAACCAAA | 96.4 ± 19% | 91.5 ± 26% | 92.2 ± 7.7% | 70.9 ± 6.8% |
| UCGUCUCACAUGUAAACCAAA | 42.3 ± 4.8% | 66.6 ± 4.2% | 29.7 ± 1.9% | 23.9 ± 2.2% |
| UCGUCUGACAUGUAAACCAAA | 92.1 ± 12% | 73.5 ± 16% | 68.4 ± 8.1% | 46.7 ± 3.7% |
| UCGUCUUACAUGUAAACCAAA | 85.9 ± 16% | 75.7 ± 9.1% | 65.4 ± 2.2% | 49.8 ± 8.5% |
| UCGUGAAACAUGUAAACCAAA | 93.1 ± 13% | 85.1 ± 8% | 88.7 ± 2.2% | 56.5 ± 3% |
| UCGUGACACAUGUAAACCAAA | 49.9 ± 9.2% | 29.9 ± 0.89% | 33.9 ± 3.3% | 35 ± 7.6% |
| UCGUGAGACAUGUAAACCAAA | 87.1 ± 16% | 63.4 ± 2.6% | 82.8 ± 2.7% | 46.2 ± 2.5% |
| UCGUGAUACAUGUAAACCAAA | 74.9 ± 16% | 68.1 ± 3.2% | 37.5 ± 2% | 45.8 ± 3.7% |
| UCGUGCAACAUGUAAACCAAA | 88.1 ± 8.2% | 92.1 ± 1.5% | 76.7 ± 6.9% | 66.5 ± 6.8% |
| UCGUGCCACAUGUAAACCAAA | 43.8 ± 10% | 38.1 ± 1.3% | 21.8 ± 3.5% | 25.7 ± 3.3% |
| UCGUGCGACAUGUAAACCAAA | 51.7 ± 10% | 83.3 ± 19% | 84.5 ± 5.3% | 41.1 ± 2.3% |
| UCGUGCUACAUGUAAACCAAA | 80.6 ± 15% | 94.1 ± 10% | 75.7 ± 6.9% | 92.7 ± 9.7% |
| UCGUGGAACAUGUAAACCAAA | 92.6 ± 14% | 74.9 ± 8.4% | 39.2 ± 2.1% | 48.6 ± 6.2% |
| UCGUGGCACAUGUAAACCAAA | 18.9 ± 5.3% | 16.1 ± 2% | 17.3 ± 1.2% | 28.9 ± 1.9% |
| UCGUGGGACAUGUAAACCAAA | 24.6 ± 3.8% | 28.4 ± 2.1% | 30.4 ± 2.9% | 24.6 ± 3.7% |

Source: the supplement of paper PMC6206098
